# Experimental data from the supplement of paper PMC3334620.
# Over roughly 33,000 sequences, “E-score (-0.5 to 0.5)” has its median near -0.035; the highest 2% begin near 0.35. This is one part of the list.
# Molecular target: T1, Pdr3 (UniProt P33200)
# T1 sequence: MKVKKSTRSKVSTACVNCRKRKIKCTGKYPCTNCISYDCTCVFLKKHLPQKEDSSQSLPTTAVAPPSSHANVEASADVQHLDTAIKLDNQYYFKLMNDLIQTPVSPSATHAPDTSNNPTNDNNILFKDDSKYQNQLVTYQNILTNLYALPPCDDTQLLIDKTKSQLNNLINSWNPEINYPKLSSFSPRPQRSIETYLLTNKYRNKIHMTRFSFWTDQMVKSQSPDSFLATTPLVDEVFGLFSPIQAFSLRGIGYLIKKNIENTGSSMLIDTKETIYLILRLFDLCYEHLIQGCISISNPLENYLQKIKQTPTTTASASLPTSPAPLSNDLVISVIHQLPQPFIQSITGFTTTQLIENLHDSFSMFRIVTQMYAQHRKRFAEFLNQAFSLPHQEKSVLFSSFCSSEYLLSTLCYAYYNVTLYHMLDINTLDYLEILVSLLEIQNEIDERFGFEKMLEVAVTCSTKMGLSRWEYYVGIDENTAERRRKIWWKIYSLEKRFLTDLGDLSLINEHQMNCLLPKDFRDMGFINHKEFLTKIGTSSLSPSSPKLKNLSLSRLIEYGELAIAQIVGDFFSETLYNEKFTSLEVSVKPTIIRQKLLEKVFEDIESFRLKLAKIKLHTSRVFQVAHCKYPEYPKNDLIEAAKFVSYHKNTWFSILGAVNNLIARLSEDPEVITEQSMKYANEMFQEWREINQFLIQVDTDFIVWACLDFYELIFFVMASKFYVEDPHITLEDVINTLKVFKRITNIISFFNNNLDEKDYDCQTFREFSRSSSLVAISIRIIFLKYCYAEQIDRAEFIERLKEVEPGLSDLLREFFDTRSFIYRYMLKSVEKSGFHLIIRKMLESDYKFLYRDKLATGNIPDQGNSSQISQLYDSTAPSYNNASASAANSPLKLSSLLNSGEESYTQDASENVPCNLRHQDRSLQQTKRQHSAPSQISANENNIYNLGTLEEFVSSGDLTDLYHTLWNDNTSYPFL
# Assay: PBM E-score (8-mer binding enrichment) (E-score (-0.5 to 0.5)); higher = stronger / more preferred TF binding; most listed sequences are background and not binding sites
# Settings: protein concentration: 200 nM; construct: GST-full length
# Method: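 Universal 'all 10-mer' protein binding microarrays (Agilent AMADID 015681) probed with GST-tagged S. cerevisiae TFs (full-length or DBD) made by in vitro transcription/translation (PURExpress), about 100-200 nM. Bound TF was detected with fluorescent anti-GST. Each ungapped 8-mer (which stands for itself and its reverse complement) is scored by the PBM enrichment score (E-score), a modified Wilcoxon-Mann-Whitney statistic from -0.5 to +0.5, computed with the Universal PBM Analysis Suite. Scale: above 0.35 generally sequence-specific binding.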
row,Sequence,PBM E-score
1,ATTCTGGA,-0.00551
2,CGAGGAAC,0.313
3,AGAAATGC,-0.0246
4,ACTATTAA,0.0378
5,AAGCAGCA,-0.123
6,ATTAGTCA,0.0506
7,AATATCGG,0.255
8,GTTGCCAA,-0.00919
9,CGGTCTGA,0.183
10,AATCGCAG,0.042
11,CGTGTACC,-0.0225
12,CACATACG,-0.233
13,CAGTTGGC,-0.0838
14,ACGCGATA,-0.0735
15,GGCCATTA,0.0961
16,ATTGGATG,-0.107
17,AGGTCTTC,-0.195
18,GATCTTTA,-0.0241
19,GACCACCA,0.0532
20,AATGGAGT,-0.0147
21,ACCTAGCT,-0.198
22,AAAATCAT,-0.0443
23,ATGTCCTG,0.0925
24,TCAGACAA,-0.0268
25,CAGATAAA,0.0639

row,Sequence,PBM E-score
1,GGGCGATA,0.0717
2,GTGCCCCA,-0.177
3,AATTTCTA,-0.0112
4,AAACCCGG,0.401
5,GGGTGACC,0.109
6,CCTGGGAG,-0.0198
7,AAGGGCTA,-0.173
8,CGAGGATC,0.115
9,CGAACAGA,0.137
10,ACCGACAT,0.0268
11,GTCGCGAA,0.0709
12,ACCAAACC,-0.0215
13,TATCCGAA,0.307
14,GAGAGCCA,-0.0735
15,CCGGGTTC,0.411
16,CCAGGCTC,-0.111
17,GCCAGGTA,-0.0481
18,AAGATCAC,-0.0576
19,AACGTTAC,-0.183
20,AACTATAC,0.00568
21,GCGATGCA,-0.0787
22,GAAGATCA,-0.0699
23,AGTTCATC,0.0424
24,AAGGATGT,-0.0876
25,GGCGGGTA,0.164

row,Sequence,PBM E-score
1,CACCGTTA,-0.0208
2,AGGCTAAA,-0.297
3,CCGGCAAG,0.241
4,GTCTATGA,-0.0893
5,AAATATTG,0.11
6,AAGGATCC,0.12
7,AATGATTA,-0.0149
8,GGCGACAC,0.0465
9,CGTCTCGA,0.0701
10,GACATTCC,0.118
11,AGGCGCTA,-0.0664
12,CCGCCCAC,0.295
13,CACTCATG,-0.257
14,ACGCACAG,0.0118
15,CTTGCACC,0.114
16,CAAAACAA,-0.224
17,ACGATGCC,-0.133
18,ATCAACAA,0.0138
19,CTAAAGCC,-0.397
20,ATAAGTTG,0.0184
21,ACGACGTA,-0.153
22,ATACGGTG,-0.0863
23,AACTACCT,0.0545
24,CCGGTAAC,0.183
25,GCGCAACA,0.0707

row,Sequence,PBM E-score
1,ATGAAATG,0.0155
2,GGCTGAAC,0.149
3,GCGTCTTA,-0.253
4,CCGACACC,0.00717
5,AGGAAGTG,-0.0864
6,GTACGTGA,-0.0968
7,GAGAGGCC,0.00827
8,AATTGTGT,-0.103
9,GGTTGATA,0.13
10,CGCGCTTA,0.138
11,CATTTACA,-0.147
12,CTAGTTTA,-0.243
13,AGGACGAG,-0.297
14,ACTCATAT,-0.105
15,AAAGTGGA,-0.237
16,CGTGTTAG,0.0767
17,GCATGTTA,0.066
18,GAAAGGTC,0.075
19,ACTTGACG,-0.135
20,ACCCTCTG,-0.182
21,CTTTGCGA,0.0333
22,AAGGCCTA,-0.231
23,AACTCAAT,-0.102
24,AACAATGG,0.0142
25,GCGAATAC,-0.00616

row,Sequence,PBM E-score
1,CGGTACCC,-0.0572
2,AACTGGCA,-0.0302
3,CCGCATGC,0.12
4,CCCAGCAG,0.0135
5,ATCTCTAG,-0.107
6,ATACTTTA,-0.121
7,CCGTCCCC,0.166
8,CTGCATAC,0.159
9,TAGACAAA,-0.168
10,AATGTTCG,0.0441
11,CCAGGCCA,-0.145
12,GCCATTTA,-0.0648
13,CAGCATCA,-0.134
14,TATTTTGA,-0.245
15,CAAAGGCA,-0.0181
16,TCGTCCAA,-0.0781
17,ATGGGAAT,-0.0684
18,GCATGCCA,0.0312
19,CTGTTCAA,-0.104
20,CACGCTTC,-0.136
21,CCCATTTC,0.0232
22,GTGCGCTA,-0.128
23,AAATAGCT,-0.0782
24,AAACGACT,-0.173
25,CTATCATA,0.0212

row,Sequence,PBM E-score
1,ACTATACT,0.0302
2,TTCCCCAA,-0.0249
3,CAAGTTAA,-0.157
4,ACGTTCGA,-0.24
5,AAAATGTA,-0.031
6,ATGACCAG,-0.131
7,AGATGAAC,0.0454
8,CTTGATTA,-0.0948
9,CTATATCA,-0.0438
10,GGTGGACA,0.131
11,AAATTCGG,0.186
12,ATAGAGTG,-0.0235
13,GCTAGAGA,-0.243
14,AAAATAGG,0.103
15,CCGGCGCC,0.37
16,GAGATGAA,0.0286
17,GAAAGACC,-0.0704
18,CGACTCTC,-0.0502
19,ACGGTTCG,0.0444
20,CTGTGTAA,-0.154
21,TAGGGAAA,-0.15
22,AATCATAT,0.0312
23,CAGGATAC,-0.0972
24,CTTTCATA,-0.00415
25,AAGCCTCC,-0.148

row,Sequence,PBM E-score
1,GTGACAAC,0.0198
2,CCCAGGGG,-0.115
3,ACAAGACT,-0.206
4,GGTAGCCA,-0.0883
5,AGAGCAGG,-0.0462
6,TATCGAGA,-0.0727
7,CCCGCTCC,0.059
8,CAGGCACG,0.106
9,AGATTGGC,-0.0973
10,AAGGCCGC,0.067
11,GGTTGCGA,0.0755
12,CGGGGTTA,0.304
13,AAGTTGCG,-0.0655
14,AATGTTGC,-0.107
15,ATAGCAAT,-0.0251
16,ATGCTAAT,-0.058
17,CATTAAAA,0.0238
18,CGTGATGA,-0.199
19,GAGCTTAC,-0.111
20,GGAGGCCC,-0.098
21,CGCCGGGC,0.308
22,AAGTCGCT,-0.211
23,CGGCTCAA,0.0984
24,TCACCTCA,-0.144
25,TATTGTAA,-0.198

row,Sequence,PBM E-score
1,ATTGGCTG,-0.202
2,GGATTCAC,0.0237
3,AGGCCTCC,-0.163
4,GCTAACCA,-0.145
5,AGCCCTAG,-0.182
6,CTGACCAC,-0.0502
7,GCCAAGAC,-0.256
8,ATTCGCCA,0.064
9,CTTCGAGC,0.111
10,AAAATCTC,-0.0559
11,ATCTATAA,-0.0823
12,AAAGCATA,-0.147
13,GGGCTCCA,-0.123
14,CATATTCC,0.211
15,CAGGTACA,-0.112
16,AACTACAC,-0.155
17,CCGCCAAA,0.237
18,CCACCCAG,-0.09
19,TACACAAA,0.0314
20,GCTCTTAA,-0.108
21,GGGGTAGA,-0.0242
22,CCTGTGAA,-0.0903
23,GTATGGAA,-0.0359
24,GATAGTCA,-0.141
25,AATAGCTA,-0.034

row,Sequence,PBM E-score
1,GCGGATAA,0.342
2,AACTCAGT,-0.149
3,GACCAAAA,0.0995
4,CCCGGGGC,0.338
5,ATGTACAC,-0.247
6,GAACCATC,0.11
7,CACGCGGA,0.38
8,CCCTGACG,0.118
9,ACGGGAAT,0.251
10,CTATTGTC,-0.0428
11,ACCAAGTA,-0.0735
12,TCCTCTCA,-0.221
13,GATGGAAA,0.0146
14,GTTGTGAA,-0.142
15,CCGGATAA,0.396
16,GGGTTCAA,-0.0922
17,ATTTTTCG,0.111
18,CTCTCCCA,-0.147
19,GTTGGAGA,-0.0278
